This data set deals with the molecule itself. As to the kind of experiment: native gel or EMSA; heat-induced polymerization: 2 µg purified Z-AAT incubated alone, with DMSO or with UFC1 in 4.75% DMSO (50 and 100 molar fold) at 41 °C for seven days, then 7.5% nondenaturing PAGE, 2 h at 100 V on ice. For orientation: Mobility shift assays separate free from complexed probe on a gel.

B1: Z-variant alpha 1-antitrypsin (natural protein)
chain: not shown
notes: human alpha 1-antitrypsin, Z variant (E342K), purified from the serum of PiZZ patients; Serum glycoprotein; also called Z-AAT; Z-hAAT; source: purified from PiZZ patients' serum
Take B1: the binding result is listed as “binds”.

Values taken from article PMC6953066, “A Novel Small Molecule Inhibits Intrahepatocellular Accumulation of Z-Variant Alpha 1-Antitrypsin In Vitro and In Vivo” (Cells, 2019).
